Experimental data from the supplement of paper PMC7726561.
Whole data set: some 1,400 sequences, median “thermal melting temperature (Tm) of peptide-HLA complex” near 60, cut for the lowest 2% near 45. This is one part of the list.

What follows are sequences tested against HLA-B*07:02 (assay: thermal melting temperature (Tm) of peptide-HLA complex; higher = more thermostable pHLA complex). Conditions: C1R-B*07:02.
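Further: cell lysates heated 10 min at 37–73 °C, remaining pHLA pulled down with pan-class I antibody, peptides quantified by DIA-MS versus 37 °C, Tm where half the complex is lost.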

Row | Sequence | thermal melting temperature [°C]
1 | APRWVLSQVQL | 61.6
2 | RPVAPSGTAL | 58.9
3 | TPRSTVGVAVL | 59.5
4 | TPAPVPTSL | 63.2
5 | APYQFLTAF | 59.9
6 | SPGPEKMAL | 59.1
7 | QPARPGLLL | 58.3
8 | KPYPIAEVEQL | 42.7
9 | VPNAGRGLVRL | 61.5
10 | SPVVRVAV | 57.1
11 | APRTLLQVL | 63
12 | RPILTIITL | 62.3
13 | TPRGGVGSVAL | 59.3
14 | APREGISQEAL | 59.4
15 | APAQPQPQL | 60.8
16 | TPMPKDVRQSL | 44.5
17 | LPFKYPAVL | 61.5
18 | VPNWHRDLV | 58.3
19 | EPAPASVTAL | 56.6

Row | Sequence | thermal melting temperature [°C]
20 | HPHAVNEIAL | 57.5
21 | APAQLPLVL | 63.3
22 | SPNGTIRNIL | 60.5
23 | APHDYGLIL | 62
24 | QPIPFPKEAL | 60.7
25 | APQPAQVAL | 58.9
26 | AARAVTGVL | 60.7
27 | VVRIITSEL | 58.6
28 | APWSREAVL | 62.2
29 | SPLVSRLTL | 61.4
30 | SPYLPRGDPVL | 59.8
31 | SPRGAGYL | 54.2
32 | SPSKENIASVL | 60.2
33 | IPQKQREITL | 59.1
34 | TPSPARPAL | 62.5
35 | RPALPALLV | 62.4
36 | RPLYKNIVL | 60.7
37 | VIAPVRAVL | 59.2
38 | HPFLQRQQL | 53.5

Row | Sequence | thermal melting temperature [°C]
39 | IPSGKRALI | 61.6
40 | APINFTSRL | 60.9
41 | RPRPGNILL | 60
42 | GPKPGGGPGL | 55
43 | KPRVTPVEVM | 55.8
44 | RPWSETIKL | 55.5
45 | RPSPPVQSV | 56.9
46 | KASLRELAL | 55
47 | LPLAHVLEL | 62
48 | MPSASRVILL | 62.7
49 | LPFRGSGTAI | 58
50 | SPRISPATTL | 60.5
51 | APALPGPQF | 64.8
52 | APSAAKLLVQL | 62.1
53 | IPRGVNVSAL | 62.5
54 | RPIGIGVQGL | 58.7
55 | SPRSTFLLAF | 62.1
56 | IPRNTVVPT | 57.1
